Assay results published in PubChem BioAssay AID1508623 (National Center for Advancing Translational Sciences (NCATS), 2021).
Hit rate of the full screen: of about 48,000 compounds, about 450 (0.94%) were called active. Roughly 19% stayed inconclusive and do not appear here. Calls come from the whole dose curve; as a rule, active = well fitted inhibition curve with a large enough effect; inconclusive = small, poorly fitted or top-dose-only effect; inactive = no such curve, though single readings can be large or run the other way. The list shows a part of the results.

Test: Primary qHTS for Identification of Small Molecule Inhibitors of Huntingtin Promoter Activity; note: nearly all actives have a fitted effect of over 50% in size
Settings: HEK293 HTT promoter firefly luciferase reporter (activity 0% = vehicle and -100% = no light), 24 h; series mostly up to 57.5 µM; activity change, negative = inhibition: at the top concentration
Summary of the method: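 HEK293 luciferase promoter-reporter cells (2,500/well) plated 24 h, then compounds added at up to 57.5 uM final for 24 h at 37 °C. Firefly luminescence by Dual-Glo, normalized to vehicle (0%) and zero RLU (-100%).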

Activity change, negative = inhibition, inactive:
O=C(CCCCn1c(=O)c2ccccc2n(Cc2cccc(F)c2)c1=O)NCc1ccc2c(c1)OCO2 -29.9%
Cc1cccc(Nc2c(-c3ccsc3)nc3nc(C)cc(C)n23)c1 -6.11%
Cc1ccc(C(=O)c2oc3ccccc3c2NC(=O)Cc2coc3ccc(C)cc23)cc1 -8.3%
COc1ccc(-n2cnc3cc(C(=O)NC4CCCCCC4)ccc32)cc1 -29.6%
CCOC(=O)c1c(C)[nH]c(C)c1S(=O)(=O)N(C)CC(=O)NCc1ccc(Cl)cc1 -16.1%
O=C(O)c1ccc2nc(-c3cc4cc(Cl)ccc4oc3=O)[nH]c2c1 -15.7%
Cc1ccc(-c2nc3c4ccccc4n(CC(=O)NCc4ccc(F)cc4)c(=O)n3n2)cc1 16.6%
Cn1c(SCC(=O)Nc2nc3ccccc3s2)ncc(C(=O)Nc2ccccc2)c1=O 2.54%
CCc1nc(-c2cc(S(=O)(=O)N3CCN(c4ccccc4)CC3)ccc2OC)no1 -5.61%
CCc1nn(CC(=O)NCCCN(CC)CC)c(=O)c2cc3occc3n12 -7.93%
Cc1ccc2onc(CNC(=O)NCc3ccc(Cl)cc3)c2c1 -12.6%
O=C1COc2cc(S(=O)(=O)CCC(=O)NC3CCCCC3)c(Cl)cc2N1 -16.5%
O=C(CSc1nccn1-c1cccc(Cl)c1)Nc1cccc2ccccc12 -31.8%
CCOc1ccc(CCNC(=O)CCCc2nnc3n(CC)c(=O)c4sccc4n23)cc1 -9.4%
O=C(O)c1c(-c2ccccc2)oc2ccc(OCc3c(F)cccc3Cl)cc12 -25.3%
Cn1c(=O)c2c(-c3ccc(Br)cc3)n(Cc3ccc(F)cc3)cc2n(C)c1=O -14.4%
COc1ccc(-c2nc3cc(C)ccn3c2NC(=O)c2cccc(F)c2)cc1 13.6%
COc1ccc(CCNC(=O)C2CCN(Cc3nc(-c4ccc(OC)c(OC)c4)oc3C)CC2)cc1OC 6.68%
Cc1ccc(/C=C(\C#N)C(=O)Nc2cccc(Cl)c2)o1 77%
CCC1Oc2ccccc2N(CC(=O)NCc2cc(OC)ccc2OC)C1=O (centres undefined) -14.3%
CCN(CC)C(=O)Cn1c(=O)n(CC2CCC(C(=O)NC)CC2)c(=O)c2sccc21 (centres undefined) 9.66%
O=C(CSc1nc(-c2ccccc2F)nc2cc(=O)[nH]n12)Nc1cccc(C(F)(F)F)c1 -20.5%
CCOc1ccccc1-c1nc(Cn2c(=O)cc(C)c3c(C)nn(-c4ccccc4)c32)c(C)o1 0%
COC(=O)c1sc(-c2ccccc2)cc1NC(=O)Nc1ccc(F)cc1 -25.1%
COc1ccc(C(CC(=O)NCc2ccc(Cl)cc2)N2Cc3ccccc3C2=O)cc1OC (centres undefined) -29%
Cc1ccc(OCC(=O)Nc2ccc(S(=O)(=O)Nc3cc(C)on3)cc2)c(Br)c1 -26.5% [at 11.5 µM]
O=C(NCc1ccccc1Cl)c1ccc(NC(=O)N2CCCCc3ccccc32)cc1 -22.2%
CCOc1ccc(NC(=O)CSC2=Nc3ccccc3C3=NC(CC(=O)NCc4ccc5c(c4)OCO5)C(=O)N23)cc1 (centres undefined) 0.987%
Cc1ccc(S(=O)(=O)c2c(Nc3cccc(Cl)c3)sc(C(=O)c3ccc4c(c3)OCO4)c2N)cc1 -16.5%
COc1ccc(-c2nc3ccccc3n2Cc2ccc(Cl)cc2)cc1 -27.7%
Cc1ccc(C(=O)c2oc3ccccc3c2NC(=O)Cc2coc3c(C)c(C)ccc23)cc1 -10.9%
COc1cc(C)ccc1OCCSc1nnc(-c2ccc(C)cc2)o1 9.88%
Cc1cccc(NC(=O)CN(C)S(=O)(=O)c2ccc3c(c2)c(=O)n(C)c(=O)n3C)c1 -12.1%
O=C(NCCS(=O)(=O)N1CCN(c2ccccc2)CC1)C1CC(=O)N(c2ccccc2)C1 (centres undefined) -6.65%
COc1ccccc1C(=O)Nc1ccc(-c2nc3ccccc3s2)c(C)c1 86.6%
Cc1cc(Br)ccc1NC(=O)C1(S(=O)(=O)c2ccc(Cl)cc2)CC1 -4.51%
CCOc1ccc(CCNc2nc3c(-c4ccc(C)cc4)nnn3c3ccccc23)cc1OCC -14.4%
Cc1ccc(-c2ccc(=O)n(CC(=O)Nc3ccc(F)c(Cl)c3)n2)cc1C -9.87%
COc1cccc(NC(=O)CSC2=Nc3ccccc3C3=NC(CCC(=O)NCc4ccco4)C(=O)N23)c1 (centres undefined) -21.1%
COc1ccccc1C(=O)Nc1nnc(S(=O)(=O)N2CCCCCC2)s1 -29.1%
COC(=O)c1c(C)sc(-c2c(-c3cccc(OC)c3)[nH]c3c2c(=O)[nH]c(=O)n3C)c1O 0%
CC(=O)Nc1ccc(S(=O)(=O)NC2(C(F)(F)F)NC(=O)N(c3ccc(Cl)cc3)C2=O)cc1 (centres undefined) -34.1% [at 11.5 µM]
COc1ccc(C(=O)N2CCc3cc(OC)c(OC)cc3C2COc2ccccc2OC)cc1 (centres undefined) -24.7%
COc1ccc(C)c2sc(N(Cc3cccnc3)C(=O)CCc3ccccc3)nc12 -24.4%
CCCn1c(=O)c2sccc2n2c(CCCC(=O)Nc3ccc(C)c(F)c3)nnc12 -11.7%
O=C(Nc1ccc(Cl)c(Cl)c1)C1CC1 -0.179%
COc1ccc(-c2noc(CN3CCN(c4ccccc4OC)CC3)n2)cc1OC -22.5%
Cc1ccc(C(=O)COC(=O)c2cc(-c3ccc(Cl)cc3)nc3ccccc23)cc1 -4.94%
Cc1noc2nc(C(=O)O)nc(N3CCCCC3)c12 -5.16%
Cn1cc(S(=O)(=O)c2ccccc2)c(=O)c2cc(F)c(N3CCCCC3)cc21 -27.9%
CCc1nnc(SCC(=O)Nc2cc(Cl)c(OC)cc2OC)c2cc3oc(C)cc3n12 -1.87%
COc1cccc(N2CC(NC(=O)COc3ccc4ccccc4c3)CC2=O)c1 (centres undefined) -12.1%
CC(=O)c1ccc(NC(=O)CCn2nc(C)c(S(=O)(=O)N3CCC(C)CC3)c2C)cc1 -24.7%
CC1CCC(NC(=O)Cn2ncc3c4ccccc4n(Cc4ccc(Cl)cc4)c3c2=O)CC1 (centres undefined) 6.1%
Cc1ccc(-n2c(=O)c3ccc(C(=O)NCc4ccco4)cc3n(Cc3cccc(Cl)c3)c2=O)cc1 -11.8%
CC(C)c1cnc2c(c1SCc1cccc(C(F)(F)F)c1)c(=O)n(C)c(=O)n2C -1.26%
Cc1cccc(-n2c3nc(=O)n(C)c(=O)c-3cc3c(Cl)cccc32)c1C -5.79%
CC(C)CCNC(=O)CSCc1cnn(-c2ccccc2)c1-n1cccc1 -23%
CCc1nc(SCC(=O)Nc2ccc(NC(C)=O)cc2)n[nH]1 -8.3%
COC(=O)c1ccccc1NC(=O)Cc1noc2ccc(C)cc12 -9.04%
COc1ccc(NC(=O)Cn2c(=O)n(Cc3nc(-c4ccccc4)no3)c(=O)c3cc4c(cc32)OCO4)cc1Cl -15.1%
Cc1cccn2c(=O)cc(COc3cccc(NC(=O)c4ccccc4F)c3)nc12 4.84%
COc1ccc(CNc2ncnc3c2nnn3C)cc1 -9.62%
Cc1nn(CC(=O)NCc2ccc(OC(C)C)cc2)c(=O)c2c(C)n(-c3ccc(Cl)cc3)nc12 1.22%
COc1ccc(CN2C(=O)C(NC(=O)c3ccccc3C)(C(F)(F)F)N=C2c2ccccc2)cc1 (centres undefined) -24.1%
CCc1ccccc1NC(=O)Cn1nnc(C(=O)Nc2ccc(C)c(F)c2)c1N 1.22%
Cc1ccc2oc(-c3ccc(Cl)c(NC(=O)c4ccc(-c5ccccc5[N+](=O)[O-])o4)c3)nc2c1 20.8%
CCCCCOc1ccc(C2c3c(oc4ccccc4c3=O)C(=O)N2c2nc(C)c(C)s2)cc1OCC (centres undefined) 6.48%
COc1ccccc1CCNc1ncnc2c1nnn2C -12.1%
COc1ccc(C)cc1NC(=O)c1ccc2c(Cl)c3c(nc2c1)CCC3 6.03%
Cn1nc(C(=O)N2CCN(c3ccccc3)CC2)c2c1-c1ccccc1S(=O)(=O)C2 -7.78%
COc1ccc(S(=O)(=O)c2c(SC)nn(Cc3ccccc3C)c2NC(C)=O)cc1 -27.6%
O=C(Nc1ccc(O)cc1)c1cccc(S(=O)(=O)N2CCOCC2)c1 -0.561%
O=C(CSc1nc2c([nH]c3ccccc32)c(=O)n1-c1ccccc1)N1CCCC1 -6.07%
Cc1ccc(OCC(=O)Nc2ccc3nn(-c4ccc(Cl)cc4)nc3c2)cc1 40.8%
O=c1c2oc3ccccc3c2n(Cc2ccccc2)c(=O)n1Cc1ccc2c(c1)OCO2 -2.89%
COc1cc(C2CC(=O)Nc3c2c(=O)[nH]c2ncnn32)ccc1O (centres undefined) -5.55%
CCOC(=O)C1CCCN(C(=O)c2ccc3c(c2)N(Cc2ccccc2)C(=O)c2ccccc2S3=O)C1 (centres undefined) -13.1%
COc1ccc2oc(=O)cc(CN3CCN(c4ccccc4F)CC3)c2c1 -0.388%
CCCCc1nn2c(=O)cc(COC(=O)c3ccccc3NC(=O)c3ccccc3OC)nc2s1 -21.6%
COc1cccc(NS(=O)(=O)c2ccc3[nH]cc(C(=O)N(C)C4CCCCC4)c(=O)c3c2)c1 3.44%
CCCC(=O)N1c2nc(C(C)C)nn2C2(CCCCC2)[C@@H]2CCCC[C@@H]21 -6.44%
COc1cc2c(cc1OC)n(CC(=O)c1ccc(F)cc1)c(=O)n1nc(CCn3nc(C)cc3C)nc21 16.3%
COc1cccc(CNC(=O)c2ccc(NC(=O)N3CCCCc4ccccc43)cc2)c1 -8.29%
O=C(Nc1cccc(Cl)c1)c1csnn1 3.44%
Cc1ccc(-c2nc(SCC(=O)NCC3CCCO3)c(-c3ccc(C)cc3)[nH]2)cc1 (centres undefined) -7.58%
NC(=O)c1cc(S(=O)(=O)NCC2CCC(C(=O)Nc3ccc(Cl)cc3)CC2)cs1 (centres undefined) -34.5%
COC(=O)c1c(NC(=O)c2cc(=O)c3c(C)cc(C)cc3o2)sc2c1CCCC2 10.3%
Cc1ccc(-n2ncc3c(N4CCN(c5ccccc5)CC4)ncnc32)cc1C -8.85%
COCCn1c(C)cc(O)c(C(c2ccccc2)N2CCC(C)CC2)c1=O (centres undefined) -12.4%
OC[C@@H](O)[C@@H](O[C@@H]1O[C@H](CO)[C@H](O)[C@H](O)[C@H]1O)[C@H](O)[C@@H](O)CO 6.34%
CCc1ccccc1Nc1cc(C(=O)NCc2ccc(C)cc2)c2ccccc2n1 -8.39%
COc1ccc(N2C(=O)CSC23C(=O)N(C)c2ccccc23)cc1Cl (centres undefined) -25.3%
CCOC(=O)N1CCN(C(=O)c2ccc3c(c2)N(Cc2ccccc2F)C(=O)c2ccccc2S3=O)CC1 (centres undefined) -15.8%
